Some of the results follow. Cut-off read from the data, not from the text of the source: active = 3.2 or more and inactive = the rest. Only a few entries rise above the background.
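Note: displayed peptides selected on beads carrying the immobilized SH2 domain, with library peptides lacking any tyrosine serving as negative controls.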

The target of the first experiment is SHP2 C-SH2 domain E139D. In words: enrichment score (SH2-bound / input frequency) (ratio); bacterial display of known human phosphotyrosine sites (pTyr-Var adds point mutants) read by sequencing; higher = stronger binding; tyrosines were phosphorylated by kinases first. The note with it: peptide library: pTyr-Var.
Turning to NHRNQYQALKP [CLSPN_Y887], the enrichment score is inactive: 0.889.

For the molecule RHLLRYLSWTV [CLCNKB_Y93_S88R], the enrichment score is inactive: 3.04.

As for SDQRRYSLIDR [CLIP2_Y972], the enrichment score is inactive: 0.646.

With ESKAGYRAPRS [CLDN7_Y195_V197A], the enrichment score was inactive: 0.446.

On to TRVMEYISRLD [CLTCL1_Y1043], for which the enrichment score was inactive: 1.15.

As for KKLAEYGPQGR [CLCA1_Y147], the enrichment score is inactive: 0.588.

For the molecule GFRPVYSEDEQ [CHST6_Y362_YF], the enrichment score was inactive: 0.902.

DLAGRYFALRS [CKB_Y173_K177R_YF]: the enrichment score was inactive: 0.899.

As for EFQKKYSDADI [CKAP5_Y1860_K1857Q_YF], the enrichment score was inactive: 0.511.

On to TGGLEYIVPLM [CLCN4_Y548], for which the enrichment score was inactive: 0.785.

SEEVNYATLTF [CLEC12B_Y7_T6N]: the enrichment score was inactive: 1.18.

For DAVKHYMQFRK [CNGA2_Y395], the enrichment score was inactive: 0.544.

Turning to SHLLRYLSWTV [CLCNKB_Y93], the enrichment score is inactive: 1.29.

As for LAGRYYALRSM [CKB_Y174_K177R], the enrichment score was inactive: 1.71.

Take GLAELYEYKKK [CKAP5_Y1854]: the enrichment score is inactive: 0.962.

In the case of RYFTTYDTNGR [CLCA1_Y665], the enrichment score was inactive: 0.806.

For the molecule DYTEAYNSKIK [CLK1_Y305_P307S], the enrichment score is inactive: 0.689.

For LAGRFYALKSM [CKB_Y174_YF], the enrichment score is inactive: 2.14.

The next experiment deals with SHP2 C-SH2 domain wild-type. The description is as above. As to conditions: peptide library: pTyr-Var.
Turning to NHRNQYQALKP [CLSPN_Y887], the enrichment score is inactive: 0.8.

Regarding RHLLRYLSWTV [CLCNKB_Y93_S88R], the enrichment score was inactive: 2.61.

In the case of SDQRRYSLIDR [CLIP2_Y972], the enrichment score is inactive: 0.654.

Take ESKAGYRAPRS [CLDN7_Y195_V197A]: the enrichment score was inactive: 0.518.

Regarding TRVMEYISRLD [CLTCL1_Y1043], the enrichment score is inactive: 0.825.

KKLAEYGPQGR [CLCA1_Y147]: the enrichment score is inactive: 0.558.

For GFRPVYSEDEQ [CHST6_Y362_YF], the enrichment score was inactive: 0.77.

For the molecule DLAGRYFALRS [CKB_Y173_K177R_YF], the enrichment score is inactive: 0.786.

With EFQKKYSDADI [CKAP5_Y1860_K1857Q_YF], the enrichment score is inactive: 0.516.

Regarding TGGLEYIVPLM [CLCN4_Y548], the enrichment score was inactive: 0.831.

Regarding SEEVNYATLTF [CLEC12B_Y7_T6N], the enrichment score is inactive: 1.67.

Turning to DAVKHYMQFRK [CNGA2_Y395], the enrichment score is inactive: 0.802.

SHLLRYLSWTV [CLCNKB_Y93]: the enrichment score is inactive: 1.17.

For the molecule LAGRYYALRSM [CKB_Y174_K177R], the enrichment score is inactive: 2.16.

Turning to GLAELYEYKKK [CKAP5_Y1854], the enrichment score was inactive: 0.898.

Turning to RYFTTYDTNGR [CLCA1_Y665], the enrichment score was inactive: 1.09.

Take DYTEAYNSKIK [CLK1_Y305_P307S]: the enrichment score is inactive: 0.561.

Consider LAGRFYALKSM [CKB_Y174_YF], for which the enrichment score was inactive: 1.82.

The next experiment has as its target SHP2 N-SH2 domain L43F. Described as above. The note with it: peptide library: pTyr-Var.
On to NHRNQYQALKP [CLSPN_Y887], for which the enrichment score is inactive: 0.923.

With RHLLRYLSWTV [CLCNKB_Y93_S88R], the enrichment score is inactive: 2.74.

For SDQRRYSLIDR [CLIP2_Y972], the enrichment score is inactive: 0.52.

As to ESKAGYRAPRS [CLDN7_Y195_V197A], the enrichment score was inactive: 0.578.

For TRVMEYISRLD [CLTCL1_Y1043], the enrichment score is inactive: 1.08.

Turning to KKLAEYGPQGR [CLCA1_Y147], the enrichment score is inactive: 0.479.

In the case of GFRPVYSEDEQ [CHST6_Y362_YF], the enrichment score is inactive: 0.715.

DLAGRYFALRS [CKB_Y173_K177R_YF]: the enrichment score is inactive: 0.944.

Regarding EFQKKYSDADI [CKAP5_Y1860_K1857Q_YF], the enrichment score is inactive: 0.591.

As to TGGLEYIVPLM [CLCN4_Y548], the enrichment score was inactive: 1.05.

Consider SEEVNYATLTF [CLEC12B_Y7_T6N], for which the enrichment score was inactive: 2.43.

Turning to DAVKHYMQFRK [CNGA2_Y395], the enrichment score was inactive: 0.865.

Consider SHLLRYLSWTV [CLCNKB_Y93], for which the enrichment score was inactive: 1.31.

Turning to LAGRYYALRSM [CKB_Y174_K177R], the enrichment score is inactive: 1.75.

As for GLAELYEYKKK [CKAP5_Y1854], the enrichment score was inactive: 0.689.

Regarding RYFTTYDTNGR [CLCA1_Y665], the enrichment score was inactive: 0.85.

DYTEAYNSKIK [CLK1_Y305_P307S]: the enrichment score was inactive: 0.869.

LAGRFYALKSM [CKB_Y174_YF]: the enrichment score was inactive: 1.76.

For a further experiment, the target named is SHP2 N-SH2 domain T42A. Described as above. As to conditions: peptide library: pTyr-Var.
NHRNQYQALKP [CLSPN_Y887]: the enrichment score was inactive: 0.838.

RHLLRYLSWTV [CLCNKB_Y93_S88R]: the enrichment score is inactive: 2.52.

In the case of SDQRRYSLIDR [CLIP2_Y972], the enrichment score is inactive: 0.475.

As for ESKAGYRAPRS [CLDN7_Y195_V197A], the enrichment score was inactive: 0.415.

As for TRVMEYISRLD [CLTCL1_Y1043], the enrichment score was inactive: 1.01.

In the case of KKLAEYGPQGR [CLCA1_Y147], the enrichment score is inactive: 0.502.

Consider GFRPVYSEDEQ [CHST6_Y362_YF], for which the enrichment score was inactive: 0.769.

Consider DLAGRYFALRS [CKB_Y173_K177R_YF], for which the enrichment score is inactive: 0.822.

Consider EFQKKYSDADI [CKAP5_Y1860_K1857Q_YF], for which the enrichment score was inactive: 0.512.

Turning to TGGLEYIVPLM [CLCN4_Y548], the enrichment score is inactive: 0.839.

As to SEEVNYATLTF [CLEC12B_Y7_T6N], the enrichment score is inactive: 2.87.

Regarding DAVKHYMQFRK [CNGA2_Y395], the enrichment score is inactive: 0.524.

SHLLRYLSWTV [CLCNKB_Y93]: the enrichment score was inactive: 1.04.

Take LAGRYYALRSM [CKB_Y174_K177R]: the enrichment score is inactive: 1.24.

On to GLAELYEYKKK [CKAP5_Y1854], for which the enrichment score is inactive: 0.778.

In the case of RYFTTYDTNGR [CLCA1_Y665], the enrichment score was inactive: 0.557.

On to DYTEAYNSKIK [CLK1_Y305_P307S], for which the enrichment score was inactive: 0.628.

With LAGRFYALKSM [CKB_Y174_YF], the enrichment score was inactive: 1.58.

A further experiment addresses SHP2 N-SH2 domain T52S. The description is as above. The note with it: peptide library: pTyr-Var.
As for NHRNQYQALKP [CLSPN_Y887], the enrichment score was inactive: 0.93.

For RHLLRYLSWTV [CLCNKB_Y93_S88R], the enrichment score was inactive: 2.69.

As for SDQRRYSLIDR [CLIP2_Y972], the enrichment score is inactive: 0.705.

As to ESKAGYRAPRS [CLDN7_Y195_V197A], the enrichment score was inactive: 0.499.

As to TRVMEYISRLD [CLTCL1_Y1043], the enrichment score was inactive: 1.09.

KKLAEYGPQGR [CLCA1_Y147]: the enrichment score is inactive: 0.503.

With GFRPVYSEDEQ [CHST6_Y362_YF], the enrichment score is inactive: 0.752.

Regarding DLAGRYFALRS [CKB_Y173_K177R_YF], the enrichment score is inactive: 0.874.

As for EFQKKYSDADI [CKAP5_Y1860_K1857Q_YF], the enrichment score was inactive: 0.478.

As to TGGLEYIVPLM [CLCN4_Y548], the enrichment score was inactive: 1.14.

As for SEEVNYATLTF [CLEC12B_Y7_T6N], the enrichment score is inactive: 2.29.

For the molecule DAVKHYMQFRK [CNGA2_Y395], the enrichment score was inactive: 0.63.

In the case of SHLLRYLSWTV [CLCNKB_Y93], the enrichment score is inactive: 1.27.

For the molecule LAGRYYALRSM [CKB_Y174_K177R], the enrichment score was inactive: 1.53.

Take GLAELYEYKKK [CKAP5_Y1854]: the enrichment score was inactive: 0.87.

On to RYFTTYDTNGR [CLCA1_Y665], for which the enrichment score was inactive: 0.648.

On to DYTEAYNSKIK [CLK1_Y305_P307S], for which the enrichment score was inactive: 0.555.

As for LAGRFYALKSM [CKB_Y174_YF], the enrichment score is inactive: 1.84.

Another experiment deals with SHP2 N-SH2 domain wild-type. Described as above. The note with it: peptide library: pTyr-Var.
Take NHRNQYQALKP [CLSPN_Y887]: the enrichment score is inactive: 0.911.

On to RHLLRYLSWTV [CLCNKB_Y93_S88R], for which the enrichment score is inactive: 2.74.

Turning to SDQRRYSLIDR [CLIP2_Y972], the enrichment score was inactive: 0.77.

In the case of ESKAGYRAPRS [CLDN7_Y195_V197A], the enrichment score is inactive: 0.53.

For TRVMEYISRLD [CLTCL1_Y1043], the enrichment score was inactive: 0.954.

For KKLAEYGPQGR [CLCA1_Y147], the enrichment score is inactive: 0.633.

Consider GFRPVYSEDEQ [CHST6_Y362_YF], for which the enrichment score is inactive: 0.965.

As to DLAGRYFALRS [CKB_Y173_K177R_YF], the enrichment score is inactive: 0.941.

Consider EFQKKYSDADI [CKAP5_Y1860_K1857Q_YF], for which the enrichment score is inactive: 0.603.

Turning to TGGLEYIVPLM [CLCN4_Y548], the enrichment score is inactive: 0.812.

On to SEEVNYATLTF [CLEC12B_Y7_T6N], for which the enrichment score is inactive: 1.45.

Regarding DAVKHYMQFRK [CNGA2_Y395], the enrichment score was inactive: 0.683.

For the molecule SHLLRYLSWTV [CLCNKB_Y93], the enrichment score is inactive: 1.28.

For LAGRYYALRSM [CKB_Y174_K177R], the enrichment score was inactive: 1.33.

For the molecule GLAELYEYKKK [CKAP5_Y1854], the enrichment score was inactive: 0.664.

For the molecule RYFTTYDTNGR [CLCA1_Y665], the enrichment score is inactive: 0.649.

Take DYTEAYNSKIK [CLK1_Y305_P307S]: the enrichment score is inactive: 0.713.

For the molecule LAGRFYALKSM [CKB_Y174_YF], the enrichment score was inactive: 2.3.
